# From PubChem BioAssay (NCATS)
# Inconclusive results, whose numbers are uncertain, are shown with a selection of clear calls. No potency is given beside an inconclusive call; the fits are too rough. Calls of active or inactive are those of the source. The call rests on the fitted dose curve; in most records, active means well fitted inhibition curve with a large enough effect; inconclusive means small, poorly fitted or top-dose-only effect, or another doubt; inactive means no such curve, though single readings can be large or run the other way.
# Molecular target: DNA polymerase eta (Homo sapiens) (UniProt Q9Y253)
# Chain of UniProt Q9Y253 (Q9Y253 whole entry, looked up): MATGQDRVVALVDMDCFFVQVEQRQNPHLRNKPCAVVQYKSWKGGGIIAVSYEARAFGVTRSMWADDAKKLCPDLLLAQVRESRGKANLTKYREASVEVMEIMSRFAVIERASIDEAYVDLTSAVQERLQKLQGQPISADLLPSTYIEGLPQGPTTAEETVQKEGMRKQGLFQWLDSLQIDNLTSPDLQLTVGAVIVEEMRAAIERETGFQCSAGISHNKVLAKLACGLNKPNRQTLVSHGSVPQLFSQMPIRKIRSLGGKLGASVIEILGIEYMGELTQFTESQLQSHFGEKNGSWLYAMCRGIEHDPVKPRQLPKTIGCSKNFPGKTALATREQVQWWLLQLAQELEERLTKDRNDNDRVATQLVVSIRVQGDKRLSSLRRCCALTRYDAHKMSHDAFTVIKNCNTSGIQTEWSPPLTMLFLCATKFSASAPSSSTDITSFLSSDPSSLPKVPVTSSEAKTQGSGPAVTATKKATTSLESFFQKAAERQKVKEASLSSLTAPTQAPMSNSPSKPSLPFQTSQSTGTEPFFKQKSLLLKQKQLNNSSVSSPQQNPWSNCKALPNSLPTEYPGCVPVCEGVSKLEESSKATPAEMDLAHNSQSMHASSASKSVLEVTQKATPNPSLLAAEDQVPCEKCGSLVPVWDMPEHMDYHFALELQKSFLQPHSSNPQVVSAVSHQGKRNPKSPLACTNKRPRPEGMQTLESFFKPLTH
# Test: qHTS for Inhibitors of Polymerase Eta: Confirmatory Assay for Cherry-picked Compounds (AID 720502)
# Details: Pol eta primer extension, TAMRA/BHQ fluorescence, 10 min
# Procedure, shortened: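 Enzyme at 10 nM is mixed with pin-transferred compound and left 15 min at room temperature. Substrate (50 nM final) is then added, and plates are read at 0 min and after 10 min.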
# Potency means the concentration at half of the fitted maximal effect; tags describe the fitted curve by direction and shape.
row,Structure (SMILES),Potency
1,CCOC(=O)C1CCN(C(=O)CCc2nc3sc4c(c3c(=O)[nH]2)CCCC4)CC1,"inconclusive [inhibitor, single point]"
2,C/C(=N\NC(=O)c1cc(O)ccc1O)c1cccc(NC(=O)c2cccc(Cl)c2)c1,"inconclusive [inhibitor, single point]"
3,O=[N+]([O-])c1ccc(Cl)c2c1C1C=CCC1C(c1ccccn1)N2 (stereo not drawn),"inconclusive [inhibitor, single point]"
4,CCOC1=C/C(=C/c2c(N)n3nc(-c4ccccc4)sc3nc2=O)C=CC1=O,"inconclusive [inhibitor, single point]"
5,CN(C)c1cccc(C(=O)OCC(=O)Nc2nccs2)c1,"inconclusive [inhibitor, single point]"
6,CCOC(=O)Cc1csc(-n2sc3ccccc3c2=O)n1,"inconclusive [inhibitor, single point]"
7,CSc1nc2c(c(=O)[nH]1)C(c1cccs1)C1=C(CCCC1=O)N2 (stereo not drawn),"inconclusive [inhibitor, single point]"
8,Cc1ccnc(NC(=O)COC(=O)c2ccc(F)cc2F)n1,"inconclusive [inhibitor, single point]"
9,CC(=O)c1ccc(OC(=O)C2CSC3(C)CCC(=O)N23)cc1 (stereo not drawn),"inconclusive [inhibitor, single point]"
10,O=C(Nc1cccc(C(=O)O)c1)/C(=C\c1ccco1)NC(=O)c1ccc(Br)o1,active: 37.9 µM
11,Nc1c(C(=O)Nc2cccc(C(=O)O)c2)sc2nc3c(cc12)CCCC3,"inconclusive [inhibitor, single point]"
12,O=C(CSc1nc2ccccc2c(=O)[nH]1)Nc1nc(-c2ccc(Br)cc2)cs1,active: 75.7 µM
13,CC1=C(C#N)C(=O)NC(=O)/C1=C\c1ccc(-c2cc(C)c(C)cc2[N+](=O)[O-])o1,"inconclusive [inhibitor, single point]"
14,O=C(O)C(Cc1ccccc1)N1C(=O)/C(=C/C=C/c2ccco2)SC1=S (stereo not drawn),active: 3.38 µM
15,CCOC(=O)c1ccc(N/N=C/c2cc(Br)cc([N+](=O)[O-])c2O)cc1,"inconclusive [inhibitor, partial curve]"
16,Cc1nc2ncnn2c(N2CCN(C(=O)Cc3cccs3)CC2)c1C,"inconclusive [inhibitor, single point]"
17,O=C(COc1ccc([N+](=O)[O-])cc1)Nc1nnc(-c2cccnc2)s1,"inconclusive [inhibitor, single point]"
18,CC(=O)Nc1ccc2c(O)cc(S(=O)(=O)O)cc2c1,"inconclusive [inhibitor, single point]"
19,CCN(CC)C(=O)COC(=O)c1cc(-c2ccco2)nc2ccccc12,active: 67.5 µM
20,O=C(O)c1ccc(S(=O)(=O)Nc2ccc(O)c(Sc3nc4ccccc4s3)c2)cc1,"inconclusive [inhibitor, single point]"
21,COc1cc(/C=C(/C#N)C(=O)Nc2ccccc2)c(Br)cc1OCc1ccc(C(=O)O)cc1,"inconclusive [inhibitor, single point]"
22,CC1CCN(S(=O)(=O)c2ccc3c(c2)C(Cl)(Cl)C(=O)N3)CC1,"inconclusive [inhibitor, single point]"
23,CCN(CC)S(=O)(=O)c1ccc(/C=C/C(=O)OCC(=O)NCc2ccco2)cc1,"inconclusive [inhibitor, single point]"
24,O=C(CCC1N=C2c3ccccc3N=C(SCC(=O)NCc3ccco3)N2C1=O)NCc1ccco1 (stereo not drawn),"inconclusive [inhibitor, single point]"
25,COc1cccc(NC(=O)Cn2cc(S(=O)(=O)N3CCCC3)c(S(=O)(=O)N3CCCC3)c2)c1,"inconclusive [inhibitor, single point]"
26,Cc1ccc(NC(=O)CN2C(=O)N/C(=C/c3cc(C)n(-c4ccc(C(=O)O)cc4)c3C)C2=O)cc1,active: 26.9 µM
27,C/C(N)=C(/C#N)C(=O)CN1C(=O)NC(Cc2c[nH]c3ccccc23)C1=O (stereo not drawn),"inconclusive [inhibitor, single point]"
28,O=C(O)c1ccc(Nc2ncc([N+](=O)[O-])cc2[N+](=O)[O-])cc1,active: 67.5 µM
